Experimental data taken from publication PMC4336329 (PLoS ONE, 2015).
Hit rate of the full screen: of about 310,000 compounds, about 14,000 (4.5%) showed an effect of 50% or more. The effect is printed as a negative number. The list shows a part of the results.

These molecules were tested against human ether-à-go-go-related gene (hERG) potassium channel (human, UniProt Q12809) (assay: primary screen, population patch clamp on CHO cells stably expressing hERG).
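Also: peak tail current of the secondary pulse compared with the same well before compound.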

Sequence of human ether-à-go-go-related gene (hERG) potassium channel (Q12809 whole entry, looked up): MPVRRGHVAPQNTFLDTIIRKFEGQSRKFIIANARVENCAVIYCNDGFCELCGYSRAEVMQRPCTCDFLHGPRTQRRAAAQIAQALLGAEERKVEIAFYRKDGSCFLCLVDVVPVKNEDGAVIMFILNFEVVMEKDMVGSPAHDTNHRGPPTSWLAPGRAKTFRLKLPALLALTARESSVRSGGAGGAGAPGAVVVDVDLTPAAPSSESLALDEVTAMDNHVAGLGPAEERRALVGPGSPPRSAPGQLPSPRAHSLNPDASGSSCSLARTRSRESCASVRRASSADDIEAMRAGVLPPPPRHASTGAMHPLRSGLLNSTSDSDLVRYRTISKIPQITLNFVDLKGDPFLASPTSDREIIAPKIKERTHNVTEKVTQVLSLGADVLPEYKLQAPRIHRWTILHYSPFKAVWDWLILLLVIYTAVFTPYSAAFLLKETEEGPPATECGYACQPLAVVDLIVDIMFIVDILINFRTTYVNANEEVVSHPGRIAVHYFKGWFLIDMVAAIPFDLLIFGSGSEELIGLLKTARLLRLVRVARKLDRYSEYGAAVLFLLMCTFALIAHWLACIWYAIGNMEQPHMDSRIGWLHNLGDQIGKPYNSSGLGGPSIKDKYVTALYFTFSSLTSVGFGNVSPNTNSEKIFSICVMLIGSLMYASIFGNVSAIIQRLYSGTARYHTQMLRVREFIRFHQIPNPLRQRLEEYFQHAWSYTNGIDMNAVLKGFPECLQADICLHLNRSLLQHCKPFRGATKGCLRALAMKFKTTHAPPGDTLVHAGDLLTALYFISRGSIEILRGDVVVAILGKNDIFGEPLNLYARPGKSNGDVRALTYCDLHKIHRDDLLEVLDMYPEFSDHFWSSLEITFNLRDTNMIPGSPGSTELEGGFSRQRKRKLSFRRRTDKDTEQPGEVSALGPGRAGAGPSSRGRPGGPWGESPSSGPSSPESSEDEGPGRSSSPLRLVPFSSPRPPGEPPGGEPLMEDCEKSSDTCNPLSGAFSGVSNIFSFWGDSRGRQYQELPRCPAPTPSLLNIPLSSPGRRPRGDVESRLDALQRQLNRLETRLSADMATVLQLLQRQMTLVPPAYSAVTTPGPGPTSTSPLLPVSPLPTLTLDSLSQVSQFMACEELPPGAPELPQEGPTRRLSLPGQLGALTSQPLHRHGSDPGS

Compound	hERG current change (%, negative = inhibition) at 10uM
CC(=O)c1c(C)[nH]c(C(=O)N2CCc3ccccc3C2)c1C	-6.42%
COc1ccc(OC)c(/C=C/C(=O)OCC(=O)c2c(N)n(C)c(=O)n(C)c2=O)c1	12.4%
COc1ccc2c(c1OC)C(=O)N1N=C(c3ccc(Br)cc3)CC21 (stereo not shown)	-15.8%
Cc1ccc(NC(=O)Cn2nnc(C(=O)NCc3cccs3)c2N)cc1	2.1%
Cc1c(CNCCc2ccccc2)c(C(=O)O)c(C)n1-c1ccccc1	12.1%
O=C(c1cc(-c2ccncc2)nc2ccccc12)N1CCN(c2ccc(N3CCOCC3)nn2)CC1	-42.4%
CCN1C(=O)c2n[nH]c(C(=O)OC)c2C1=O	16%
O=C1c2ccccc2C(=O)N1CCOc1ccccc1	-0.552%
COc1ccc(N(Cc2cc3cc(OC)ccc3[nH]c2=O)C(=O)C2CCCO2)cc1 (stereo not shown)	-14.3%
CCN(CCCNC(=O)CSc1cc(=O)n(C)c2cc(Cl)ccc12)Cc1ccccc1	-58.8%
CCC(C)Nc1nc(OC)nc(N(C)C#N)n1 (stereo not shown)	13.3%
CC1(C)C2CCC1(C)C(OC(=O)C[n+]1ccccc1N)C2.[Br-] (stereo not shown)	-35.3%
O=C(NC1CCCCC1)c1cccc(OCc2ccccc2)c1	-3.56%
CCS(=O)(=O)NCCc1cc2c(OC)ccc(OC)c2[nH]c1=O	11.1%
CC1CC(C)CN(CCCNC(=O)CCNC(=O)Cn2ccc3ccccc3c2=O)C1 (stereo not shown)	-5.54%
Cc1ccc(C)c(NC(=S)N2CCN(S(C)(=O)=O)CC2)c1	14.3%
Cc1ccccc1NC(=O)c1c(Cl)nc(C)c(Cl)c1C	-8.36%
Cc1ccc(-n2c(-c3nn(C)c(C)c3Cl)n[nH]c2=S)cc1	16%
CCOC(=O)c1sc(NC(=S)NC(=O)c2ccco2)nc1C	6.8%
CN(C)CCN(C(=O)c1ccc2c(c1)CCCC2)c1nc2cc3c(cc2s1)OCCO3.Cl	5.76%
Cc1ccc(-n2ncc3c2CC(C)(C)CC3NC(=O)CCN2CCCO2)cc1 (stereo not shown)	-37.7%
CCCCn1c(SCC(=O)NCc2ccco2)nc2c1c(=O)n(C)c(=O)n2C	-4.63%

Compound	hERG current change (%, negative = inhibition) at 10uM
CC(C)(C)NC(=O)Nc1cccc(Cl)c1Cl	10.6%
O=C(Nc1ccc(Cl)cc1F)C1CCN(S(=O)(=O)c2cccnc2)CC1	-21.5%
CCOC(=O)c1c(NCCN(C)C)c2ccccc2[nH]c1=O	8.71%
CCOc1ccc(C2C(C(=O)c3ccco3)=C(O)C(=O)N2Cc2cccnc2)cc1OC (stereo not shown)	-0.462%
Cc1onc(-c2ccccc2)c1C(=O)Nc1nc(-c2cc(F)ccc2F)cs1	2.36%
CCOC(=O)c1[nH]nc(-c2cc(CC)c(O)cc2O)c1-c1cscn1	15%
Cc1ccc(SCC(=O)Nc2nnc(C(C)(C)C)s2)cc1	22.1%
N#CC(C#N)=C(C#N)c1ccc(Nc2ccccc2)cc1	6.62%
CC(=O)c1ccc(S(=O)(=O)N(C)CCCC(=O)N2CCN(c3ncccn3)CC2)cc1	-38.4%
O=C(NC(Cc1c[nH]c2ccccc12)c1nnc2n1CCCCC2)c1ccc(Cl)cc1 (stereo not shown)	-38.8%
O=C(NCCC1=CCCCC1)C(=O)NCC(c1ccco1)N1CCN(c2ccccc2)CC1 (stereo not shown)	-15.3%
CCOC(=O)C1=C(C)NC2=C(C(=O)c3ccccc32)C1c1cccnc1 (stereo not shown)	-12.4%
CCc1ccc(C(=O)CC2(O)C(=O)N(CN3CCOCC3)c3ccccc32)cc1 (stereo not shown)	7.69%
CCOC(=O)c1cc(CC)sc1NC(=O)CC1SC(N)=NC1=O (stereo not shown)	-2.87%
COc1ccc(C(CNc2ncnc3sccc23)N(C)C)cc1OC (stereo not shown)	0.613%
Cc1ccc(CNC(=O)CCn2cc(-c3ccc(C)cc3)nc2CCN)cc1	-26.6%
Cc1ccc(S(=O)(=O)N2CCC(C(=O)NCCC3=CCCCC3)CC2)cc1C	-11.6%
CC(C)c1nnc(NC(=O)CCC(=O)NCc2ccco2)s1	2.23%
Cc1ccc(N(C)C(=O)N2CCN(S(=O)(=O)c3ccc(C)c(C)c3)CC2)cc1	-13.7%
Oc1c(C(c2cccs2)N2CCN(c3ccccc3)CC2)sc2ncnn12 (stereo not shown)	-33.6%
C=CCn1c(SCC(=O)NC23CC4CC(CC(C4)C2)C3)nc(O)cc1=O	-9.96%
